In PubChem BioAssay (NCI):
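Interpolation was linear, between the two tested concentrations surrounding the appropriate level; five concentrations were tested over 48 hours in 96-well plates. TGI is the concentration that stops growth completely.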

How the values were obtained:
Assay in all cases: NCI-60 cell line screen, 48 h
SK-OV-3 ovarian = tested on: SK-OV-3 ovarian
DU-145 prostate = tested on: DU-145 prostate
RXF 393 renal = tested on: RXF 393 renal
CAKI-1 renal = tested on: CAKI-1 renal
SK-MEL-28 melanoma = tested on: SK-MEL-28 melanoma
UACC-257 melanoma = tested on: UACC-257 melanoma
HCT-116 colon = tested on: HCT-116 colon
OVCAR-5 ovarian = tested on: OVCAR-5 ovarian
LOX IMVI melanoma = tested on: LOX IMVI melanoma
K-562 leukemia = tested on: K-562 leukemia
SF-268 CNS = tested on: SF-268 CNS
CCRF-CEM leukemia = tested on: CCRF-CEM leukemia
SF-295 CNS = tested on: SF-295 CNS
COLO 205 colon = tested on: COLO 205 colon
MCF7 breast = tested on: MCF7 breast
PC-3 prostate = tested on: PC-3 prostate
NCI-H23 lung = tested on: NCI-H23 lung
MOLT-4 leukemia = tested on: MOLT-4 leukemia
M14 melanoma = tested on: M14 melanoma
SN12C renal = tested on: SN12C renal
A498 renal = tested on: A498 renal
HS 578T breast = tested on: HS 578T breast
OVCAR-4 ovarian = tested on: OVCAR-4 ovarian
A549 NSCLC = tested on: A549 NSCLC
NCI-H460 lung = tested on: NCI-H460 lung
BT-549 breast = tested on: BT-549 breast
SR leukemia = tested on: SR leukemia
KM12 colon = tested on: KM12 colon
786-0 renal = tested on: 786-0 renal
RPMI-8226 leukemia = tested on: RPMI-8226 leukemia
HCT-15 colon = tested on: HCT-15 colon
EKVX NSCLC = tested on: EKVX NSCLC
SK-MEL-5 melanoma = tested on: SK-MEL-5 melanoma
SNB-19 CNS = tested on: SNB-19 CNS
SNB-75 CNS = tested on: SNB-75 CNS
OVCAR-3 ovarian = tested on: OVCAR-3 ovarian
UO-31 renal = tested on: UO-31 renal
HOP-62 NSCLC = tested on: HOP-62 NSCLC
MDA-MB-231 breast = tested on: MDA-MB-231 breast
TK-10 renal = tested on: TK-10 renal
SK-MEL-2 melanoma = tested on: SK-MEL-2 melanoma
MDA-MB-435 = tested on: MDA-MB-435
T-47D breast = tested on: T-47D breast
OVCAR-8 ovarian = tested on: OVCAR-8 ovarian
MALME-3M melanoma = tested on: MALME-3M melanoma
UACC-62 melanoma = tested on: UACC-62 melanoma
HCC-2998 colon = tested on: HCC-2998 colon
NCI-H522 lung = tested on: NCI-H522 lung
ACHN renal = tested on: ACHN renal
IGROV1 ovarian = tested on: IGROV1 ovarian
NCI/ADR-RES ovarian = tested on: NCI/ADR-RES ovarian
MDA-N = tested on: MDA-N
HOP-92 NSCLC = tested on: HOP-92 NSCLC
U251 CNS = tested on: U251 CNS
HL-60(TB) leukemia = tested on: HL-60(TB) leukemia
SW-620 colon = tested on: SW-620 colon

## O=C1Cc2c([nH]c3cc(Cl)cc(Cl)c23)-c2ccccc2N1
SK-OV-3 ovarian
  TGI: > 100 µM
DU-145 prostate
  TGI: > 100 µM
RXF 393 renal
  TGI: > 100 µM
CAKI-1 renal
  TGI: > 100 µM
SK-MEL-28 melanoma
  TGI: > 100 µM
UACC-257 melanoma
  TGI: > 100 µM
HCT-116 colon
  TGI: > 100 µM
OVCAR-5 ovarian
  TGI: > 100 µM
LOX IMVI melanoma
  TGI: > 100 µM
K-562 leukemia
  TGI: > 100 µM
SF-268 CNS
  TGI: > 100 µM
CCRF-CEM leukemia
  TGI: > 100 µM
SF-295 CNS
  TGI: > 100 µM
COLO 205 colon
  TGI: > 100 µM
MCF7 breast
  TGI: > 100 µM
PC-3 prostate
  TGI: > 100 µM
NCI-H23 lung
  TGI: > 100 µM
MOLT-4 leukemia
  TGI: > 100 µM
M14 melanoma
  TGI: > 100 µM
SN12C renal
  TGI: > 100 µM
A498 renal
  TGI: > 100 µM
HS 578T breast
  TGI: > 100 µM
OVCAR-4 ovarian
  TGI: > 100 µM
A549 NSCLC
  TGI: > 100 µM
NCI-H460 lung
  TGI: > 100 µM
BT-549 breast
  TGI: > 100 µM
SR leukemia
  TGI: > 100 µM
KM12 colon
  TGI: > 100 µM
786-0 renal
  TGI: > 100 µM
RPMI-8226 leukemia
  TGI: > 100 µM
HCT-15 colon
  TGI: > 100 µM
EKVX NSCLC
  TGI: > 100 µM
SK-MEL-5 melanoma
  TGI: > 100 µM
SNB-19 CNS
  TGI: > 100 µM
SNB-75 CNS
  TGI: > 100 µM
OVCAR-3 ovarian
  TGI: > 100 µM
UO-31 renal
  TGI: > 100 µM
HOP-62 NSCLC
  TGI: > 100 µM
MDA-MB-231 breast
  TGI: > 100 µM
TK-10 renal
  TGI: > 100 µM
SK-MEL-2 melanoma
  TGI: > 100 µM
MDA-MB-435
  TGI: > 100 µM
T-47D breast
  TGI: > 100 µM
OVCAR-8 ovarian
  TGI: > 100 µM
MALME-3M melanoma
  TGI: > 100 µM
UACC-62 melanoma
  TGI: > 100 µM
HCC-2998 colon
  TGI: > 100 µM
NCI-H522 lung
  TGI: > 100 µM
ACHN renal
  TGI: > 100 µM
IGROV1 ovarian
  TGI: > 100 µM
NCI/ADR-RES ovarian
  TGI: > 100 µM
MDA-N
  TGI: > 100 µM
HOP-92 NSCLC
  TGI: > 100 µM
U251 CNS
  TGI: > 100 µM
HL-60(TB) leukemia
  TGI: 98.5 µM
SW-620 colon
  TGI: > 100 µM
